Test results taken from PubChem BioAssay AID1347120 (National Center for Advancing Translational Sciences (NCATS), 2019).
Out of some 390,000 compounds screened, about 930 (0.24%) were called active. Where a call stands in place of a potency, no number is given. The shares of active, inactive and inconclusive entries below differ from those in the screen. The call rests on the fitted dose curve; in most records, active means well fitted activation curve with a large enough effect; inconclusive means small, poorly fitted or top-dose-only effect; inactive means no such curve, though single readings can be large or run the other way. Where the call is inconclusive, the potency comes from a doubtful curve fit.

experiment: qHTS for Suppressors of FUS Proteinopathy: Primary screen using FUS-linked yeast assay; further: nearly all actives have a fitted effect of over 55% in size; settings: S. cerevisiae FUS-expressing, OD600, 24 h; Potency: growth rescue; growth rescue (activation): at 76.6 µM (top of the series)
Outline: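 Galactose (2%) drives FUS expression in yeast precultured in raffinose; seeding density OD 0.005. Test compounds incubated 24hr at 30C and 99% humidity before absorbance at 600 nm was measured.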
Potency means the concentration at half of the fitted maximal effect; tags describe the fitted curve by direction and shape.

| Compound | Potency | growth rescue (activation) |
| --- | --- | --- |
| CC(=O)OCC(=O)Nc1ccc(C(C)=O)cc1 | inconclusive: 50.1 µM [activator, single point] |  |
| Cc1cc(C)cc(Nc2ncnc3c2nc2n3CCCC2)c1 | inactive |  |
| Cc1nnc(SCC(=O)NC(=O)NC(C)(C)C)s1 | inactive |  |
| O=C(c1ccccc1)c1nn(-c2ccccc2)c2nnc(Cc3ccccc3)c(=O)n12 | inconclusive: 25.1 µM [activator, partial curve, poor fit] |  |
| COc1ccc(CNC(=O)C(c2ccc(C)o2)N(Cc2cccs2)C(=O)Cc2cccs2)cc1 (configuration not stated) | inactive |  |
| COc1cccc(/C=N/NC(=O)CSc2nnc(C)n2-c2ccccc2)c1OC | inactive |  |
| O=C(OCc1nc2ccsc2c(=O)[nH]1)c1ccc(Cl)s1 | inactive |  |
| CCOC(=O)c1c(C)[nH]c(C)c1C(=O)COC(=O)c1ccc(Cl)c(S(=O)(=O)NCc2ccccc2)c1 | inconclusive: 17.8 µM [activator, single point] |  |
| CCc1cc(=O)oc2c(C)c(OCC(=O)N3CCC[C@@H]3C(=O)O)ccc12 | inactive |  |
| CCCCOc1ccc(C2C(=O)N(C3CCCCC3)CC(=O)N2CC2CCCO2)cc1 (configuration not stated) | active: 8.91 µM |  |
| CCCCC1CCC(C(=O)N2CC(=O)Nc3ccc(F)cc3C2c2ccc(F)cc2)CC1 (configuration not stated) | inconclusive: 35.5 µM [activator, partial curve, poor fit] |  |
| O=C(Nc1nc2nc(-c3ccccc3)cc(-c3ccccc3)n2n1)c1ccco1 |  | inconclusive: 62.1% [activator] |
| COc1cccc(=O)c2c(C)n(C)c(C)c12 | active: 28.2 µM |  |
| CCCCN(CCCC)c1ncnc2c1cnn2-c1cccc(C)c1 | inactive |  |
| Cc1cc(C)n(C(C)CC(=O)NCc2ccccc2C)n1 (configuration not stated) | inactive |  |
| COC(=O)[C@@]12CCCN1[C@H](c1ccc(-c3ccc(OC)cc3)cc1)[C@@H]1C(=O)N(C)C(=O)[C@@H]12 | inconclusive: 31.6 µM [activator, single point] |  |
| CC1=C(C(N)=O)C(c2ccc(Cl)cc2)NC(=O)N1 (configuration not stated) | inconclusive: 11.2 µM [activator, single point] |  |
| CC(C)c1ccc(O)c(NC(=S)NC(=O)c2cccnc2)c1 | inactive |  |
| COc1ccc(/C=N/NC(=O)c2ccccc2OC)cc1COc1ccc(C)cc1 | inactive |  |
| CCc1ccccc1NC(=O)CNC(=O)c1ccc(OCc2cn3ccccc3n2)cc1 | inactive |  |
| CCN(CC)S(=O)(=O)c1ccc(N2CCN(c3ccccc3O)CC2)nc1 | inconclusive: 25.1 µM [activator, single point] |  |
| COc1ccc2cc(CN(Cc3ccco3)C(=S)NCC3CCCO3)c(=O)[nH]c2c1 (configuration not stated) | inactive |  |
